In the RNAGym collection of RNA variant scans (doi:10.7554/elife.90254):
The source gives no read counts; variants with many changes may rest on few reads.

B1: LINE1-mini (parent)
chain: GGCAGAGCUCAACACAGCGUGGCAAAGUGGCUGUGGCUAGACUGCC

Variants of: B1
Assay: self-cleavage, relative activity (ratio to wild type); higher = more cleavage; in vitro, sequencing; the parent is a self-cleaving ribozyme

Row | Variant | self-cleavage
1 | G1U A25U A26U | 0.29
2 | G19A U32C G36A C45U | 0.01
3 | G7C A14C G19A G21C U43G | 0
4 | C3A A11U G33C | 0.03
5 | C3A A6C C10A G36A | 0.05
6 | G2C C3A A16C A25G | 0
7 | C8A C13A G22C U38A G40A U43C | 0.02
8 | G5C G17A G30A C31U | 0.04
9 | A4G G21U G29A | 0.39
10 | G5U A11G C45A | 0.04
11 | A4C A6C U43C | 0.03
12 | G2U C3U C13U A14G | 0.02
13 | C3G A12U A16C G30A A41C | 0.01
14 | G5A A11G A12G | 0
15 | A4G A11U C23G | 0.01
16 | G1U G22A G33C | 0.04
17 | G7A U9G C13U G22U U34G C46A | 0.02
18 | A24G U38A A39U G44C | 0.01
19 | C10A A14U C15A A26U U38G | 0
20 | C10A A14C C15U C18U G19U G35C | 0.01
21 | C3G C23G G35C | 0.14
22 | C18G C37A G40C | 0.2
23 | C8U A11C G21A | 0.02
24 | A24G U34A A39U G40U | 0.02

Row | Variant | self-cleavage
25 | G1C G5U A14G G19U | 0
26 | G1C G17C C23G G29U | 0.01
27 | G2A A12U G33A U38C | 0.05
28 | C8U U20C C23A A39C | 0.01
29 | C3U A4C G19C C37A | 0
30 | C8A A16C C31G | 0.05
31 | G22C A26U C46A | 0.23
32 | G5A C31U C37G | 0.07
33 | A26C G27C U34C | 0.01
34 | G22C C23A A24U G44U | 1.37
35 | A6G C31U C37G G40C U43A C46G | 0.03
36 | G7U A12C A41C | 0.07
37 | G1U G17U G22A | 0.06
38 | A14U U32G G40C | 0.02
39 | C10A C13U C15U A26G | 0.02
40 | G33C G36A A41U | 0.02
41 | G2C A6C C15A | 0.02
42 | G2U C3A A6G C10A U20C A41C | 0.03
43 | G29A U34A C37U | 0.02
44 | A6C G36U A39G C46U | 0.03
45 | C3G U38G G40U C46U | 0.13
46 | G7U G17U A39C | 0.04
47 | A16U U28C U38G | 0
48 | U20A U32A U43A | 0.08

Row | Variant | self-cleavage
49 | G19C G29U G35U | 0.08
50 | G7C G36C U38G G44C | 0
51 | C3U C10A A24C | 0.02
52 | G1A C15G A16C G19U A41G | 0.01
53 | U38A A39U A41C C45A | 0.01
54 | C3U A11C U20C U43C | 0.01
55 | G2A G5U C46G | 0.07
56 | G5C G22U G44A | 0.05
57 | G1C C8A A12U G29A G44U | 0.02
58 | G1A G22C C23U G29U | 0.93
59 | G7A A14G C23U | 0.14
60 | A4U A6C G36U C37U | 0.03
61 | U32A C37A C46U | 0.06
62 | C3U G30U C46A | 0.02
63 | C13U G40U C42U | 0.23
64 | C3A C18G G30A | 0.08
65 | G2U A14U C37A C45A | 0.02
66 | C3A C10U A24G A39U | 0.48
67 | A4C C23G G29C C37G C45G | 0.03
68 | G7U C10A C23U G33U G44A | 0.01
69 | G7U A25C G27C C31U | 0.03
70 | C3G A4G C10G G33U G40U | 0.01
71 | U34C C37G U38A | 0.01
72 | C23A G33C G36U | 0.03

Row | Variant | self-cleavage
73 | C18U G21A A41G | 0.48
74 | G19A C31U G36U | 0.02
75 | G2U U20A C23A | 0.24
76 | C10A C23U C45A | 0.03
77 | G5A C10A A12C U20A C31G C45G | 0.01
78 | G1C G5U A6U G44A | 0.02
79 | C10G A26U C42G | 0.01
80 | G7C A11C U32G | 0.05
81 | A11C C13U A16C C31G | 0.02
82 | G19U A25G G36U C37A | 0.01
83 | U34A G35U G40U U43A | 0
84 | C23A A25C G36U G44C | 0.06
85 | C8U C15U G22C C37U U38C | 0.19
86 | G19A G29U C31A C37U | 0.05
87 | G2A G27C U34A G44A | 0.12
88 | G7C A11U U38A | 0.02
89 | A26G G27A C31U | 0.62
90 | G29U C31G C42G | 0.06
91 | A4C G17C G35C | 0.3
92 | G17U G27C G35A A39C | 0.04
93 | U9A C13A U43C | 0.21
94 | G30C U32A A41C C42G | 0.04
95 | G5U A25U G33A C42A | 0.01
96 | A6C C13U G44A | 0.09

Row | Variant | self-cleavage
97 | C3A A6U A11G C13G | 0.12
98 | G7U G21A U38C | 0.15
99 | G1U C10A C18A G19C C23A | 0
100 | C10A C18A G19A G22A C23G A24C A26U G27C C45A | 0.01
101 | G2A G7C G21C | 0.27
102 | C31U G40A C42U | 0
103 | A14G G36U C42A U43A | 0.01
104 | G29U C37U U43C G44A | 0.04
105 | C8G A24C U28A | 0.02
106 | C13U C23A G33U | 0.09
107 | A11U U32C G35C C42G | 0.01
108 | G1C A25G G29C G33A G40A | 0
109 | G5A C8U U28G | 0.15
110 | U9C U20C G33A | 0.01
111 | A6C A11C A16U G36A C37G | 0
112 | G22C G30C U34A | 0.04
113 | A16U C37A G40U A41C | 0.11
114 | A25C C31G U32G | 0.06
115 | C18U G19C C23U | 0.46
116 | G5A A25G C31U C46G | 0.03
117 | G5C U9G C13G U28C G36U | 0.02
118 | G1U A4G C13A A14C G40U | 0.04
119 | G7U G21U G33A | 0.1
120 | A11G G30A C46A | 0.03

Row | Variant | self-cleavage
121 | G1A U9C G21A A25C C31G A41G | 0.04
122 | C3A U28G G29U G36C G40C G44A | 0.04
123 | C8A A16U G35U A41U | 0.02
124 | G1A A11G G27A C45G | 0.02
125 | A4G U32A A39U | 0.56
126 | G2U G30U C31A | 0.19
127 | A6U C8U A12C A16C A39G G40U | 0.02
128 | G5A G19A C42U C45U | 2.83
129 | C8G C13U U28C G33A C46G | 0.01
130 | A4U C31G G33C | 0
131 | G1C C8A G21A C23A G36A C37U | 0.09
132 | C13G C18G U20A C23U A24C U28A U32A | 0.02
133 | G2C C3U C15G A16U G21U C37A | 0.11
134 | G1U C31G U38C | 0.02
135 | A16U A25C A39U | 0.01
136 | C10A G21C C31G | 0.03
137 | G2U C18A U28C U38C | 0.03
138 | C15A C18G C37G | 0.03
139 | A12C G19C C37A U38A | 0
140 | C10U G17A G40A C42A | 0.03
141 | C13U A14C G40U | 0
142 | G19U U32G C45G | 0.06
143 | C3G A12G G19U U34C U43A | 0.05
144 | C3A A24G C31A A39G | 0.13

Row | Variant | self-cleavage
145 | C23U A25G G40U A41C | 0.07
146 | A4G C10A G36C | 0
147 | C23A G40A C42A | 0.06
148 | C3A U9C C23G U28G U32A U34G | 0.02
149 | G5A G19U U20A A25G | 0
150 | A6U A11C G33A | 0.04
151 | A4G C18U G29A C37U | 0.01
152 | G1C G30C G36U U43C C45U | 0.01
153 | A4C C15A A26C A41C | 0.14
154 | U34G U38C U43A C45U | 0.07
155 | G2U G33U U34G | 0.08
156 | A11U C15G G30A | 0.01
157 | A6G C10U C15U | 0.06
158 | C3G G7U A12C C31A G44U | 0.05
159 | A25G U38C A39G | 0.14
160 | G17U C23A G30C G36A U38G G40U | 0.06
161 | C23A G30A G33A | 0.03
162 | G2C A16G G19U | 0.05
163 | C8U A14U G36C | 0.05
164 | C10U A11C A14G C18G G35U | 0
165 | A12G C15G A16C C23U | 0.03
166 | G27A A39C G40A A41U | 0.24
167 | U9G G21A A26U U28A | 0.07
